These are yes or no findings as the source states them, for the method shown. For some assays here: In cells and extracts the contact can be indirect. Some results given as binding are weak or reduced against the parent protein; the word gives no strength. Where a sequence is shown, tags or fusion partners need not be part of it.

Sequences of proteins named here, by UniProt entry; tags and fusion partners are left off.
UniProt Q94BT6: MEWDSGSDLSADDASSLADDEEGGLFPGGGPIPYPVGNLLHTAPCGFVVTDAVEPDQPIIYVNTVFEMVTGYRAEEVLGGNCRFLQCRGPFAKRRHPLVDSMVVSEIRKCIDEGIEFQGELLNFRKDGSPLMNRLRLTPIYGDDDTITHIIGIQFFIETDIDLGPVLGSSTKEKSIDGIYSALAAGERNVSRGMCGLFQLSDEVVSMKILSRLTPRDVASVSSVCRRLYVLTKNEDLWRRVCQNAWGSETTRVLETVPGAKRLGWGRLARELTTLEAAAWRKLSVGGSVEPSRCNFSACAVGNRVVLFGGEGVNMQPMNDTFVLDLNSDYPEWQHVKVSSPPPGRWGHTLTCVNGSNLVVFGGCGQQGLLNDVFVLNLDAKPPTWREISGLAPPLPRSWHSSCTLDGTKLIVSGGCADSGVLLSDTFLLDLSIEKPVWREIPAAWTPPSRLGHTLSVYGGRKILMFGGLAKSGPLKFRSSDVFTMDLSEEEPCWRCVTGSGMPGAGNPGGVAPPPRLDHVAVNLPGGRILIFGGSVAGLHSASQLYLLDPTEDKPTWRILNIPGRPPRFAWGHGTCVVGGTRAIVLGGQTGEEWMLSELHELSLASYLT

Test [1] concerns the target T1, LIGHT … PERIOD 1 (LIP1), full-length, GAL4 fusion (Arabidopsis thaliana) (UniProt Q9C5J9).
T1 sequence: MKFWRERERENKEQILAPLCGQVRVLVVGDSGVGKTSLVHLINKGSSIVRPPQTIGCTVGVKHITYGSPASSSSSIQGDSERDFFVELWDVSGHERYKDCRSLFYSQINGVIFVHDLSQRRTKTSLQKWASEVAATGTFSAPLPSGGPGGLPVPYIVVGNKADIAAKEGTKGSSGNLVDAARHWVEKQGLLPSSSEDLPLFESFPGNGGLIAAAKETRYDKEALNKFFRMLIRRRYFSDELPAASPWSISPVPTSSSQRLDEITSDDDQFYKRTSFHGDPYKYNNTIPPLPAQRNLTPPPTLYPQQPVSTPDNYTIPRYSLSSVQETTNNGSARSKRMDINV
As to the kind of experiment: two-hybrid; GAL4-based yeast two-hybrid, pGADT7-pGBKT7 pairs co-transformed in PJ69-4A, either (AD and BD) configuration; growth on Ade-/Leu-/Trp- SD plates at 30 °C and β-galactosidase activity (ONPG) of liquid cultures.

Test [2] has as its target T2, TIMING OF CAB EXPRESSION 1 (TOC1), full-length, GAL4 fusion (Arabidopsis thaliana) (UniProt Q9LKL2).
T2 sequence: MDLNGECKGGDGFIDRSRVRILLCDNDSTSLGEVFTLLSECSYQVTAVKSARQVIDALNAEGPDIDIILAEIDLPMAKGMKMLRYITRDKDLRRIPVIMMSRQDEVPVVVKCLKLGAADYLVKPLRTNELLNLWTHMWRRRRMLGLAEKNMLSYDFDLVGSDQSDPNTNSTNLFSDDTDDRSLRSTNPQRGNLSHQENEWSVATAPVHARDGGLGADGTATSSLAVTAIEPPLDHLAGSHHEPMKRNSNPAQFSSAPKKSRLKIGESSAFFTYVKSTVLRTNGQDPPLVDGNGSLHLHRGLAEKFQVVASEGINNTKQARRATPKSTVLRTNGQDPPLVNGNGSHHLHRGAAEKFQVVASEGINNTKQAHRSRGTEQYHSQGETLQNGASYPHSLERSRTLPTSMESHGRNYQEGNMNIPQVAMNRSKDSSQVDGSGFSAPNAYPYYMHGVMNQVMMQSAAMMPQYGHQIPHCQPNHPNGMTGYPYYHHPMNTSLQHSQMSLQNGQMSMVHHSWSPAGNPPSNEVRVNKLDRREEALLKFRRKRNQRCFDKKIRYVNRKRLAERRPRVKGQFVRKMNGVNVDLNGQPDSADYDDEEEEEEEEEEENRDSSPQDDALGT
The test is described as above.

In test [3] the target is ZEITLUPE (ZTL), full-length, GAL4 fusion (Arabidopsis thaliana) (UniProt Q94BT6). The description is as above.
Test [4] has as its target T3, LIP1 fused to the N- or C-terminal fragment of firefly luciferase (Arabidopsis thaliana) (UniProt Q9C5J9).
T3 sequence: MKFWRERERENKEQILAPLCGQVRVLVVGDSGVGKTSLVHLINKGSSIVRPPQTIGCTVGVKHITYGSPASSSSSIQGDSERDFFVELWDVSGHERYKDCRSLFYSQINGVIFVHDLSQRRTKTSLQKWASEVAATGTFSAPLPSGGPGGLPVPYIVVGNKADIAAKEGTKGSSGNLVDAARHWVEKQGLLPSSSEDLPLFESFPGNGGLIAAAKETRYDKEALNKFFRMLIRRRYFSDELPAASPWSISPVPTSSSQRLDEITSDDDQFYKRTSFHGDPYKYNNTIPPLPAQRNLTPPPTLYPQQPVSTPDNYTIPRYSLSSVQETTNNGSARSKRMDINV
Put plainly: split reporter; luciferase complementation: LIP1 or GEF7 fused to nLUC or cLUC in either configuration, coexpressed in E. coli BL21 Rosetta cells; luminescence of freshly grown bacterial cultures.

On to “ZEITLUPE (ZTL), full-length, GAL4 fusion (from UniProt Q94BT6 1-609)”, for which the figures for the binding result in test [1] and in test [2] were “no binding” and “binds”, respectively.

B1: PSEUDO-RESPONSE REGULATOR 9 (PRR9), GAL4 fusion (protein, UniProt Q8L500 1-468)
chain: MGEIVVLSSDDGMETIKNRVKSSEVVQWEKYLPKTVLRVLLVESDYSTRQIITALLRKCCYKVVAVSDGLAAWEVLKEKSHNIDLILTELDLPSISGFALLALVMEHEACKNIPVIMMSSQDSIKMVLKCMLRGAADYLIKPMRKNELKNLWQHVWRRLTLRDDPTAHAQSLPASQHNLEDTDETCEDSRYHSDQGSGAQAINYNGHNKLMENGKSVDERDEFKETFDVTMDLIGGIDKRPDSIYKDKSRDECVGPELGLSLKRSCSVSFENQDESKHQKLSLSDASAFSRFEESKSAEKAVVALEESTSGEPKTPTESHEKLRKVTSDQGSATTSSNQENIGSSSVSFRNQVLQSTVTNQKQDSPIPVESNREKAASKEVEAGSQSTNEGIAGQSSSTEKPKEEESAKQRWSRSQREAALMKFRLKRKDRCFDKKVRYQSRKKLAEQRPRVKGQFVRTVNSDASTKS
Take B1: the binding entry in test [1] is on record as “no binding”.

B2: GIGANTEA (GI), full-length, GAL4 fusion (protein, UniProt Q9SQI2 1-1173)
chain: MASSSSSERWIDGLQFSSLLWPPPRDPQQHKDQVVAYVEYFGQFTSEQFPDDIAELVRHQYPSTEKRLLDDVLAMFVLHHPEHGHAVILPIISCLIDGSLVYSKEAHPFASFISLVCPSSENDYSEQWALACGEILRILTHYNRPIYKTEQQNGDTERNCLSKATTSGSPTSEPKAGSPTQHERKPLRPLSPWISDILLAAPLGIRSDYFRWCSGVMGKYAAGELKPPTIASRGSGKHPQLMPSTPRWAVANGAGVILSVCDDEVARYETATLTAVAVPALLLPPPTTSLDEHLVAGLPALEPYARLFHRYYAIATPSATQRLLLGLLEAPPSWAPDALDAAVQLVELLRAAEDYASGVRLPRNWMHLHFLRAIGIAMSMRAGVAADAAAALLFRILSQPALLFPPLSQVEGVEIQHAPIGGYSSNYRKQIEVPAAEATIEATAQGIASMLCAHGPEVEWRICTIWEAAYGLIPLNSSAVDLPEIIVATPLQPPILSWNLYIPLLKVLEYLPRGSPSEACLMKIFVATVETILSRTFPPESSRELTRKARSSFTTRSATKNLAMSELRAMVHALFLESCAGVELASRLLFVVLTVCVSHEAQSSGSKRPRSEYASTTENIEANQPVSNNQTANRKSRNVKGQGPVAAFDSYVLAAVCALACEVQLYPMISGGGNFSNSAVAGTITKPVKINGSSKEYGAGIDSAISHTRRILAILEALFSLKPSSVGTPWSYSSSEIVAAAMVAAHISELFRRSKALTHALSGLMRCKWDKEIHKRASSLYNLIDVHSKVVASIVDKAEPLEAYLKNTPVQKDSVTCLNWKQENTCASTTCFDTAVTSASRTEMNPRGNHKYARHSDEGSGRPSEKGIKDFLLDASDLANFLTADRLAGFYCGTQKLLRSVLAEKPELSFSVVSLLWHKLIAAPEIQPTAESTSAQQGWRQVVDALCNVVSATPAKAAAAVVLQAERELQPWIAKDDEEGQKMWKINQRIVKVLVELMRNHDRPESLVILASASDLLLRATDGMLVDGEACTLPQLELLEATARAIQPVLAWGPSGLAVVDGLSNLLKCRLPATIRCLSHPSAHVRALSTSVLRDIMNQSSIPIKVTPKLPTTEKNGMNSPSYRFFNAASIDWKADIQNCLNWEAHSLLSTTMPTQFLDTAARELGCTISLSQ
Turning to B2, the binding entry is reported as “binds” in test [3], “no binding” in test [1] and “binds” in test [2].

B3: LUX ARRHYTHMO (LUX), GAL4 fusion (protein, UniProt Q9SNB4 1-323)
chain: MGEEVQMSDYDVSGDGDRVSEWEMGLPSDEDLASLSYSLIPPNLAMAFSITPERSRTIQDVNRASETTLSSLRGGSSGPNTSSSNNNVEEEDRVGSSSPGSDSKKQKTSNGDGDDGGGVDPDSAMAAEEGDSGTEDLSGKTLKRPRLVWTPQLHKRFVDVVAHLGIKNAVPKTIMQLMNVEGLTRENVASHLQKYRLYLKRMQGLTNEGPSASDKLFSSTPVPPQSFQDIGGGGGSSGNVGVPIPGAYGTQQMMQMPVYAHHMGMQGYHHQNHNHDPYHQNHRHHHGAGGNGAFESNPYMMQQNKFGSMASYPSVGGGSANEN
In the case of B3, the binding entry in test [1] is reported as “no binding”.

B4: GEF7 fused to the N- or C-terminal fragment of firefly luciferase (protein, UniProt Q9LZN0 1-546)
chain: MDGSSENLPEVEEKGRESSCCSSETTRQEEEEQSPSCTEDFTASPVSSRWSVKNIDGEKKKIRSDSRVSEVEMMKERFSKLLLGEDMSGSGNGVCTALAISNAITNLCATLFGQLWRLEPLPTEKKEMWRREMEWLLCVSDHIVEMTPTWQTFPDGTKLEIMTCRPRSDLYVNLPALRKLDNMLLEILDSFEETEFWYVDQGIMAHESAADGSSSFRKSFQRQEDKWWLPVPRVSPGGLQENSRKQLQHKRDCTNQILKAAMAINSITLADMEIPESYLESLPRKGRSCLGDLIYRYISSDQFSPECLLDCLDLSSEHQAIEIANRVESSIYLWHKRTNSKPATNTKTSWEMVKELMVDADKLELMADRAESLLLSLKQRFPGLPQTALDMSKIQYNKDIGKSILESYSRVLESLAFNIVARIDDLLFVDDLTRHSSDQIPTTLGNNGNDAPKSIAVPVSNYTTPSYSPSKQELRSSITVPPSPSRFKIPHSSSVKRVLTAYVTKNEPRLKNLPLERSSRSSSSERLSLEKCMKESLNVSNLDPGI
With B4, the binding result in test [4] is recorded as “binds”.

These data come from publication PMC11394198.
